Assay results taken from publication PMC12136788.
This is one part of the list.

T1: UNK ZnF1-3 (human, UniProt Q9C0B0 31-174)
T1 sequence: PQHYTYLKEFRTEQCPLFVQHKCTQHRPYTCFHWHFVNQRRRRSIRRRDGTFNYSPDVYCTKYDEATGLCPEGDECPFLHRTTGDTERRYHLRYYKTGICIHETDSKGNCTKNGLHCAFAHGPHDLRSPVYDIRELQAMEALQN

B1: chr11:98549071:98549072:+_ENSMUSG00000017221_ENSMUST00000017365|mus_hu|motif|central (ssRNA)
RNA: GGGAGUUCUACAGUCCGACGAUCAUCCAGCUUGUCCAGGAACUCAUAGACCCGGGCGUGAUAAUAGUAACACUUUGCGGCGGCAAGGUCUAGGGCCCGGCGGUUCUGAGUACUGAUCUUCUGCAUCAGAUCAUCAGAGAUCUUCAACAGAGGAUUGAGCAUCA
B2: chr1:60041781:60041782:+_ENSMUSG00000041040_ENSMUST00000036540|mus_hu|mus_mus_mus_hu_False|98_98 (ssRNA)
RNA: GGGAGUUCUACAGUCCGACGAUCAAGUUUACAAUAGCUCAACUUUAGCAGUAGUGGCAAAUUUUCUUUUAUUUUCCUUCACAAAAGAAAAUCUUUAUAACCCAGUCCUAGUCUUGGACAUAGUGAAAGCUAUAAAUUCUGACUCAACAGAGGAUUGAGCAUCA
B3: 16805037_16807016_525_CDS_ENSMUSG00000024304_ENSMUST00000115850|mouse|control|control (ssRNA)
RNA: GGGAGUUCUACAGUCCGACGAUCGAUGGGGUUGAUAAUGAAGAUGCCCGUUGGAGGCUGGUCAGCUCCUGGCCCAGUGACGCUGUAUCUCAGGGAAAGGUUUUUAUCUCUAUCAGACCUGAUUCUGACAAGCUCUUGAGGAAACAACAGAGGAUUGAGCAUCA
B4: chrX:45232703:45232704:-_ENSMUSG00000031099_ENSMUST00000088973|mus_mus|motif|central (ssRNA)
RNA: GGGAGUUCUACAGUCCGACGAUCAGAUGGAACCCAUCGUUUAAAUUCAUUCAUCCAGUUAUGUAAAGUAGACUUGGGAACGGAAACCAUGUGGGGUCCAGGAAUGUUUCUGUAGUGCUUCAGGUAACCAAGCAAGGCAAUGGUCAACAGAGGAUUGAGCAUCA
B5: chr3:148802587:148802588:-_ENSG00000071794_ENST00000310053|hu_mus|hu_hu_hu_mus_False|8_48 (ssRNA)
RNA: GGGAGUUCUACAGUCCGACGAUCUCCAACAACUUGUCCUCUCAUAGUUCCAAAUAAAACCAAAUCUUGCUCUUCAUCACUCGUUAGAAAGUCAUCUGGAGGAAUAAUGUCUUGGAAUUCAAAAUGUGGAAAGAAAGUUGAGUACAACAGAGGAUUGAGCAUCA
B6: chr6:72561926:72561927:-_ENSMUSG00000056429_ENSMUST00000070524|mus_mus|FALSE|FALSE (ssRNA)
RNA: GGGAGUUCUACAGUCCGACGAUCGUAAAUAAAACAUCACCAGAGGAGAGUGUCAUCAAAGUGCCGGUGCAAAACCUGAAGCUAUCCCAUCUCUGCCAGCCCAGACUUGCCACCAAACCCCAGAGGAGGUCACAGUCUUUUCAUCAACAGAGGAUUGAGCAUCA
B7: chr10:18963012:18963013:+_ENSG00000165997_ENST00000377275|hu_hu|FALSE|FALSE (ssRNA)
RNA: GGGAGUUCUACAGUCCGACGAUCCCCUUCUCCUGUGAGAGCACAGCAGGAUUGAAUGUGCCAUGGAUGAUCCUUAAUUGAACUAAGGGUGAGGUAUUUCGAGAUUUCAGCUGCUGUCAUACACCCUUUCAUAUCCUGUUUAUUCAACAGAGGAUUGAGCAUCA
B8: chr8:126036873:126036874:-_ENSG00000164961_ENST00000318410|hu_mus|FALSE|FALSE (ssRNA)
RNA: GGGAGUUCUACAGUCCGACGAUCAUGCACGUUGCAUGAGGAGUCAAGUAUCUUUCUCACGUCCAAGUUCAUUCUAGUCAUAGAACAUCCUGUCACUGGAGCAGGAGAAAGAAGUCACAGGACUGUUCGGAAUUCAUCAAAAAUCAACAGAGGAUUGAGCAUCA
B9: 94973625_94974325_524_3pUTR_ENSMUSG00000014602_ENSMUST00000171796|mouse|control|control (ssRNA)
RNA: GGGAGUUCUACAGUCCGACGAUCGAGUAGGACAUGUUGUCGUUGGUGGUGUCGUUGAUUCGAGAGAAGAGGUCUUCGCAGAGCUGUGGAAUGAUGCCUUGCUGGUCCUUCUCCUGUUUCCCCAUCAUGGUGUAGGACUUGCCGCAACAGAGGAUUGAGCAUCA
B10: chr17:74721675:74721676:-_ENSG00000070495_ENST00000397625|hu_hu|FALSE|FALSE (ssRNA)
RNA: GGGAGUUCUACAGUCCGACGAUCGUCUUCCAAAAGUUUCCUUCUUUUAGGGUGUUCACCAUAGCUGCUGUCAAAGAUGUAAAGGGGACUAUCAUCUCGAGUGCUCUCCAUGUACUCGAUGUAGUAUUUCAUCUUCAUCUUCACCAACAGAGGAUUGAGCAUCA
B11: chr1:152005216:152005217:-_ENSG00000163191_ENST00000271638|perfect_dup|motif|central (ssRNA)
RNA: GGGAGUUCUACAGUCCGACGAUCAGAGGAUUAGAUUCGCUUCUGGGAAGUUUGGAUGAAAGAAUCAUGGCACGCGGUAGCGGAGCCACCAAUGAGGUUGAGAAACUCUUGGAAAUCUAGCUGCCCGUCACAGUUGAGGUCCAGCAACAGAGGAUUGAGCAUCA
B12: chr4:138847413:138847414:+_ENSMUSG00000028745_ENSMUST00000102508|mus_mus|FALSE|FALSE (ssRNA)
RNA: GGGAGUUCUACAGUCCGACGAUCGCUGAGGACAUCACUCCUUCCUCCACUGCUGUCCCCUGUCCCCAGCCCUGACUCCAAGCAACUCCCACACACACACGGAUCAGAUCUCCAGUUUCUUCUCUCACACACCAGUUAGUUCAUCAACAGAGGAUUGAGCAUCA
B13: chr4:107908409:107908410:-_ENSMUSG00000034636_ENSMUST00000043616|mus_mus|motif|central (ssRNA)
RNA: GGGAGUUCUACAGUCCGACGAUCUGAAACUGUAGAAUUUCAAGCACAAGUUAAGUUCAAACACUGAGAGAGAGAUUCCCGGAGAGACAAUAUUGAAGGAAGACCUUUCUUGCCUCAUAAGUUAAAAAUCACAAAACAAAUCAGCAACAGAGGAUUGAGCAUCA
B14: chr1:167252050:167252051:+_ENSMUSG00000040836_ENSMUST00000111450|mus_mus|FALSE|FALSE (ssRNA)
RNA: GGGAGUUCUACAGUCCGACGAUCGGAUACCAUUGAAGACAAGAGCCACAUGGUGGCUUCCCUUUCACAUCCACCAUCUCUAGUCCUCCUGAUGCCCCAGCCACAUCUCCAUCUGCUUCUAACGUGUGCUUUCGAAGCCUCGUUCAACAGAGGAUUGAGCAUCA
B15: 143732237_143732357_1318_CDS_ENSMUSG00000029581_ENSMUST00000031565|mouse|control|control (ssRNA)
RNA: GGGAGUUCUACAGUCCGACGAUCGUUGUAGGCGCCGUCAUUGAAUUCCAACUGGAAGACAUCGUAACUGGAACGGUUGGCAUCCAGAGUGCCCGUGACCUUGCGGCAGCCAAUGAACCCGUGUUCCCCCCGGAACACGAUGAUCAACAGAGGAUUGAGCAUCA
B16: chr8:117878989:117878990:-_ENSG00000164754_ENST00000297338|hu_hu|hu_hu_hu_mus_True|8_58 (ssRNA)
RNA: GGGAGUUCUACAGUCCGACGAUCCCAGAGGCCCUCGUUUACUGAGGACAAAAUGUGCGUAGAACAUUUUUCUUAUUGGCUAUGAAAUAAGAAGAAACCUGGAUCUCGGCGGGGAGCCGGGAGGGGUUGGGUGGCCCGGGAGGGCAACAGAGGAUUGAGCAUCA
B17: 67227886_67228528_1651_CDS_ENSMUSG00000031605_ENSMUST00000034017|mouse|control|control (ssRNA)
RNA: GGGAGUUCUACAGUCCGACGAUCGUCAUAUACUUCAACACUUUUUCGUACUAAAGGACCAUCAUGACCUCCUACAGCAUAUAAUAAGUUGUUUAACACACCAACACCUGCUCCGCUCCGUCUGGUGCUCAUUUCUGCUAUGUACAACAGAGGAUUGAGCAUCA
B18: chr1:225611761:225611762:-_ENSG00000143815_ENST00000272163|hu_mus|hu_hu_hu_mus_True|1_108 (ssRNA)
RNA: GGGAGUUCUACAGUCCGACGAUCCCAGGCCAUCGACCUCUGACCACUUCACCCUCAACAAACUUCCUACUUGGCAUUUUCUAAAAUUAGUCUGGCCGCGCUCCGGCGGGAACUCCAGCCACUCCAGGACAGUCACCCGCACAGCAACAGAGGAUUGAGCAUCA
B19: 31828395_31829081_688_CDS_ENSG00000204386_ENST00000375631|human|control|control (ssRNA)
RNA: GGGAGUUCUACAGUCCGACGAUCUUUCUGAAUACCAGAGCCCGGUCCAGGGGCAAACACUUCAGUGCCAAUAUCCAGGGAGAGAUUCCGGGGUGUGCUCCAGGAAACACCAUCAUCCUUGCUCCAUACCAACAUGGUAGAGGCCAACAGAGGAUUGAGCAUCA
B20: chr4:25749455:25749456:-_ENSG00000091490_ENST00000264868|hu_hu|hu_hu_hu_mus_False|58_88 (ssRNA)
RNA: GGGAGUUCUACAGUCCGACGAUCGCACUAUGACCUCUAGAAAAAUCAUUCAAGGAGAAAAAUGUAAACCAAUGUACAAAGCUAUUGCCUUCCCUGUGUGUGGAGUGUUUGUCUCAAGGCUCCUUCUAGCUGCUGGAUUUGGGACAACAGAGGAUUGAGCAUCA
B21: chr1:213302989:213302990:+_ENSG00000136643_ENST00000366960|hu_hu|motif|central (ssRNA)
RNA: GGGAGUUCUACAGUCCGACGAUCAGAAGCAACAGCCCCUAGUGCUGAAGAAUCCGAAGAAAGAUUGAGACCAAAAGUUCGGAUGGGAGAAUUUUGAUUGGAAGCCAUUCCAUCAUCUAACUCAGCAAGAGAAUCCACAUCAACCAACAGAGGAUUGAGCAUCA
B22: 91924360_91936672_504_3pUTR_ENSG00000001629_ENST00000265742|human|control|control (ssRNA)
RNA: GGGAGUUCUACAGUCCGACGAUCCCUAAUAUUUUAUUCAUUCCAUGUCUAGCAGCAUAAUGUAAUGGAGUAUUGUGCUGGUAGGGCUCCCCAUAAGAUGUAUUUGGAUCAAGAGAUUCUUUUAGCUGAGGAUUGUUUUCAUAUCAACAGAGGAUUGAGCAUCA

What follows are binders tested against T1, UNK ZnF1-3 (assay: nsRBNS (natural sequence RNA bind-n-seq); RBNS binding buffer (assumed for nsRBNS): 25 mM Tris pH 7.5, 150 mM KCl, 3 mM MgCl2, 0.01% Triton X-100, 500 ug/ml BSA, 20 U/ml SUPERase-In, 4 C; UNK is unkempt and MSI1 is Musashi-1; names of the RNAs are library labels; protein concentration not given here; high values mean tight binding).
B1 was tested, and the binding signal was 0.697 enrichment R.
Work on B2 yielded a binding signal of 0.503 enrichment R.
B3 gave a binding signal of 1.07 enrichment R.
B4 gave a binding signal of 1.15 enrichment R.
With B5 the binding signal was 1.26 enrichment R.
With B6 the binding signal was 2.11 enrichment R.
B7 was tested, and the binding signal was 0.896 enrichment R.
Work on B8 yielded a binding signal of 0.971 enrichment R.
In the case of B9, the binding signal is reported as 0.588 enrichment R.
B10 showed a binding signal of 0.689 enrichment R.
B11 was tested, and the binding signal was 1.5 enrichment R.
B12 was tested, and the binding signal was 1.25 enrichment R.
Binder B13 has a binding signal of 1.46 enrichment R.
B14 was tested, and the binding signal was 0.592 enrichment R.
With B15 the binding signal was 0.682 enrichment R.
For B16, the binding signal was 1.44 enrichment R.
B17 was tested, and the binding signal was 1.06 enrichment R.
Work on B18 yielded a binding signal of 1.29 enrichment R.
With B19 the binding signal was 1.04 enrichment R.
B20 was tested, and the binding signal was 1.12 enrichment R.
For B21, the binding signal was 2.3 enrichment R.
B22 gave a binding signal of 0.937 enrichment R.
